Measured values reported in PubChem BioAssay AID504332 (National Center for Advancing Translational Sciences (NCATS), 2011).
Hit rate of the full screen: of about 350,000 compounds, about 31,000 (8.9%) were called active. The shares of active, inactive and inconclusive entries below differ from those in the screen. The call rests on the fitted dose curve; in most records, active means well fitted inhibition curve with a large enough effect; inconclusive means small, poorly fitted or top-dose-only effect; inactive means no such curve, though single readings can be large or run the other way. Potencies beside an inconclusive call are fits to weak or partial responses and may not hold up.

Target: Histone-lysine N-methyltransferase EHMT2 (Homo sapiens) (UniProt Q96KQ7)
Test: qHTS Assay for Inhibitors of Histone Lysine Methyltransferase G9a; further: nearly all actives have a fitted effect of over 75% in size
Conditions: G9a H3K9 monomethylation, AlphaScreen, 2 h; activity, negative = inhibition: at 59 µM (top of the series) unless noted
In short: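 AlphaScreen detection with an anti-monomethyl H3K9 antibody quantified product after a 2 h room-temperature reaction containing 500 nM biotinylated H3K9 peptide, 20 µM SAM and 20 nM enzyme, which had been preincubated 15 min with compound.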
On the % scale 0 is the no-effect control and ±100 the full control effect; potency means the concentration at half of the fitted maximal effect; tags describe the fitted curve by direction and shape.

Sequence of UniProt Q96KQ7 (Q96KQ7 whole entry, looked up): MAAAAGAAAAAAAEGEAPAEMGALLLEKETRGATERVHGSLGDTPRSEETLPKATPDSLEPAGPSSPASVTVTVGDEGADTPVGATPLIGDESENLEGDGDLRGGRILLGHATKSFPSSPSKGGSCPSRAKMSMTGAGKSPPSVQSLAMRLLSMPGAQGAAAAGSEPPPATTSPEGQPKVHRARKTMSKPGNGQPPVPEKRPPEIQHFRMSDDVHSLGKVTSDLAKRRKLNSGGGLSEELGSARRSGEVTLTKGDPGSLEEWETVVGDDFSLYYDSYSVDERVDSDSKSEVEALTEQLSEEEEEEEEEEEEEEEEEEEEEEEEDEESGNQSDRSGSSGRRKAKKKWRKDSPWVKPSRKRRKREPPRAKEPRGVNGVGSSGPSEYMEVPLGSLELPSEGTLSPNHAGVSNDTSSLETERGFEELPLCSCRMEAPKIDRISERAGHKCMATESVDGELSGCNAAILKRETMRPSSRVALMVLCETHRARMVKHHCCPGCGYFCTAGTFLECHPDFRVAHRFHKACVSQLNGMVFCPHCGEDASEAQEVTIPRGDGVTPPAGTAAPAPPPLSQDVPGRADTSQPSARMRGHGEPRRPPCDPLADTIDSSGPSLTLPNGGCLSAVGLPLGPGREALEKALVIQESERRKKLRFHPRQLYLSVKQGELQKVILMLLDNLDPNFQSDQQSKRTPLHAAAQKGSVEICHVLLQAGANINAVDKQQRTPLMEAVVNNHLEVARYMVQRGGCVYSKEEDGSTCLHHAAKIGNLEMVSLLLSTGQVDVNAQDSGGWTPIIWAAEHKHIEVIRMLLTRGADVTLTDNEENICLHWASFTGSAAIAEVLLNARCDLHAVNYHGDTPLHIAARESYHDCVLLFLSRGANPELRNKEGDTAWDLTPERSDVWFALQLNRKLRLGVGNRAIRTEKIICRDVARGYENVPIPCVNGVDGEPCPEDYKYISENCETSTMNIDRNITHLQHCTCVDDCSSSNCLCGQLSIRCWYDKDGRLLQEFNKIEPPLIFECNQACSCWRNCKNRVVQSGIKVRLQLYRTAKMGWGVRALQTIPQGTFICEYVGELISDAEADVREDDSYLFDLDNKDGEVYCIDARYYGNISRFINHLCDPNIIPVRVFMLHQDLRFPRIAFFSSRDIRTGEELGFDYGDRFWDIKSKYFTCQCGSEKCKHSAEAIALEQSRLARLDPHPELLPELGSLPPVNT

Row | SMILES | activity, negative = inhibition | Potency
1 | Cc1cccc(NC(=O)c2sc3nc(-c4ccc(F)cc4)cn3c2C)n1 | inactive: -25.7% | 
2 | CC(=O)NNC(=S)NC(=O)c1cccc([N+](=O)[O-])c1 |  | inconclusive: 0.891 µM [inhibitor, full curve, poor fit]
3 | COc1cccc(N2C(=O)CSC23C(=O)N(Cc2ccccc2)c2ccccc23)c1 (centres undefined) |  | inconclusive: 2.82 µM [inhibitor, partial curve, poor fit]
4 | CCCCCC/C=C\CCCCCCCc1cccc(O)c1C(=O)O | inactive: 2.54% [at 2.33 µM] | 
5 | COCc1ccc(CN2CCC(Oc3ccc(C(=O)NCc4ccccn4)cc3)CC2)o1 |  | inconclusive: 22.4 µM [inhibitor, partial curve, poor fit]
6 | COCCn1nnnc1C(c1cccs1)N1CCN(c2nc3ccccc3s2)CC1 (centres undefined) | inactive: -26.6% [at 12.7 µM] | 
7 | O=C(CSc1nc2ccccc2o1)Nc1nncs1 |  | inconclusive: 39.8 µM [inhibitor, single point]
8 | O=c1c(Cl)c(Cl)cnn1Cc1ccccc1Cl | inactive: -9.26% | 
9 | CCc1cccc(OCC(=O)Nc2cc(S(=O)(=O)N3CCOCC3)ccc2N2CCCC2)c1 | inactive: -5.93% [at 102 µM] | 
10 | Cc1ccc(NC(=O)CCCCCN2C(=O)[C@@H]3Cc4ccccc4CN3C2=O)c(Cl)c1 | inactive: 10.6% [at 0.0925 µM] | 
11 | O=C(Nc1ccc2c(c1)OCO2)c1ccc(Cl)s1 |  | inconclusive: 70.8 µM [inhibitor, partial curve, poor fit]
12 | Cn1c(SCC(=O)Nc2ccc3[nH]c(=O)[nH]c3c2)nnc1-c1ccc(F)cc1 | inconclusive: -94.3% [inhibitor] | 
13 | CCCN1C(=O)C2(C(C(=O)c3ccc(C)o3)=C(O)C(=O)N2CCCN2CCOCC2)c2ccccc21 (centres undefined) |  | inconclusive: 56.2 µM [inhibitor, partial curve]
14 | CCN(CC)c1ccc(C(=O)N2CCN(Cc3ccccc3)CC2)cc1 |  | inconclusive: 25.1 µM [inhibitor, single point]
15 | Cn1cnc(S(=O)(=O)N2CCc3ccccc32)c1 |  | inconclusive: 70.8 µM [inhibitor, single point]
16 | COc1ccc(-n2nc3c(c2NC(=O)CBr)CSC3)cc1 |  | inconclusive: 44.7 µM [inhibitor, partial curve, poor fit]
17 | Cc1ccc2c(c1)sc1nc(-c3cc4ccccc4oc3=O)cn12 |  | inconclusive: 39.8 µM [inhibitor, partial curve, poor fit]
18 | O=S1(=O)C[C@@H]2N=C(N/N=C/c3ccccc3)S[C@@H]2C1 |  | inconclusive: 89.1 µM [inhibitor, single point]
19 | Cc1csc(C(C#N)C(=O)c2ccncc2)n1 (centres undefined) |  | active: 50.1 µM
20 | COc1ccc(N2CCN(c3c4c(nc5nncn35)CCC4)CC2)cc1 |  | inconclusive: 7.08 µM [inhibitor, single point]
21 | Cc1ccc(N/N=C(\C#N)C(=O)c2ccsc2)cc1 |  | inconclusive: 22.4 µM [inhibitor, full curve]
22 | O=C(/C=C/Nc1ccc(F)c(F)c1)c1cccs1 |  | active: 44.7 µM

Row | SMILES | activity, negative = inhibition | Potency
23 | COc1cc2c(cc1OC)CN(c1ccc3ccccc3n1)CC2 |  | inconclusive: 100 µM [inhibitor, single point]
24 | COc1ccc(OC)c(CNC(=O)CCCc2cn(C)c3ccccc23)c1 |  | inconclusive: 79.4 µM [inhibitor, single point]
25 | COc1ccc(NC(=O)C(=O)NCCC2CCCCN2S(=O)(=O)c2ccc(F)cc2)cc1 (centres undefined) | inconclusive: -63.7% [inhibitor] [at 2.33 µM] | 
26 | COC(=O)CSc1nc(N2CCOCC2)c2c(c1C#N)CC(C)(C)OC2 |  | inconclusive: 79.4 µM [inhibitor, partial curve, poor fit]
27 | Cc1oc(-c2ccc(Cl)cc2)nc1Cn1c(=O)cc(C)c2c(C)nn(-c3cccc(F)c3)c21 | inactive: -1.75% | 
28 | CCOc1ccsc1C(=O)NNC(=O)c1ccco1 | inactive: 12.6% [at 102 µM] | 
29 | O=C(c1cc(-c2ccccn2)nc2c(Cl)cccc12)N1CCN(S(=O)(=O)c2ccccc2)CC1 |  | inconclusive: 10 µM [inhibitor, partial curve]
30 | COc1ccccc1/C=C1/C(=O)N(c2ccc([N+](=O)[O-])cc2)N=C1C |  | inconclusive: 7.94 µM [inhibitor, single point]
31 | Cn1c(CSc2nc3ccccc3s2)nc2ccccc21 | inactive: -49.5% [at 102 µM] | 
32 | COC(=O)c1ccc(CSc2nnc(-c3ccncc3)n2Cc2ccccc2)o1 |  | inconclusive: 89.1 µM [inhibitor, single point]
33 | O=C(c1ccco1)N1CCCC(c2nc3c(nnn3Cc3ccc(Cl)cc3Cl)c(=O)[nH]2)C1 (centres undefined) | inactive: -14.9% [at 102 µM] | 
34 | CC(=O)Nc1cccc(NC(=O)CSc2cn(CC(=O)N(C(C)C)C(C)C)c3ccccc23)c1 |  | inconclusive: 0.794 µM [inhibitor, partial curve, poor fit]
35 | O=C(O)/C=C/C(=O)Nc1ccc2c(c1)C(=O)c1ccccc1C2=O |  | active: 44.7 µM
36 | COc1cc(NC(=S)Nc2cccc(Cl)c2Cl)c(OC)cc1Cl |  | inconclusive: 79.4 µM [inhibitor, partial curve, poor fit]
37 | Cc1ccc(S(=O)(=O)N2CC=C(C(=O)NC3CC3)CC2)cc1 |  | inconclusive: 79.4 µM [inhibitor, partial curve, poor fit]
38 | CCc1ccccc1NC(=O)CSc1ncc(S(=O)(=O)c2ccccc2)c(N)n1 |  | active: 12.6 µM
39 | COc1ccccc1-c1nc(C#N)c(NCc2ccc(F)cc2)o1 | inconclusive: -88.2% [inhibitor] | 
40 | COc1cc(Br)cc(CN2CCN(c3ncccn3)CC2)c1O |  | inconclusive: 79.4 µM [inhibitor, single point]
41 | Cc1nn(Cc2ccc(C(=O)N3c4ccc(F)cc4CCC3C)o2)c(C)c1Br (centres undefined) |  | active: 50.1 µM
42 | Cc1nc2ccccc2cc1C(=O)NCc1ccco1 |  | inconclusive: 56.2 µM [inhibitor, partial curve, poor fit]
43 | C=CC(C)(O)CC/C=C(\C)CCC=C(C)C (centres undefined) | inactive: 6.47% [at 12.7 µM] | 
44 | CCN(C(=O)C1CCCCC1)c1nnc(-c2cccnc2)s1 |  | active: 50.1 µM
